# Source: PMC6919601, “Identification of Plasmodium dipeptidyl aminopeptidase allosteric inhibitors by high throughput screening” (PLoS ONE, 2019)
# Hit rate of the full screen: of about 110,000 compounds, about 230 (0.21%) showed an effect of 50% or more. The list shows a part of the results.
# Target: DPAP1 (Plasmodium falciparum, UniProt Q8IIJ9)
# Test: primary screen, percent inhibition; read by cleavage of a fluorogenic dipeptide substrate; higher = more effect of the substance
# Set-up: species or system P. falciparum D10 trophozoite lysates; single well
# 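Note: 30 min substrate incubation versus DMSO and 10 µM JCP410 controls.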
# Chain of DPAP1 (Q8IIJ9 whole entry, looked up): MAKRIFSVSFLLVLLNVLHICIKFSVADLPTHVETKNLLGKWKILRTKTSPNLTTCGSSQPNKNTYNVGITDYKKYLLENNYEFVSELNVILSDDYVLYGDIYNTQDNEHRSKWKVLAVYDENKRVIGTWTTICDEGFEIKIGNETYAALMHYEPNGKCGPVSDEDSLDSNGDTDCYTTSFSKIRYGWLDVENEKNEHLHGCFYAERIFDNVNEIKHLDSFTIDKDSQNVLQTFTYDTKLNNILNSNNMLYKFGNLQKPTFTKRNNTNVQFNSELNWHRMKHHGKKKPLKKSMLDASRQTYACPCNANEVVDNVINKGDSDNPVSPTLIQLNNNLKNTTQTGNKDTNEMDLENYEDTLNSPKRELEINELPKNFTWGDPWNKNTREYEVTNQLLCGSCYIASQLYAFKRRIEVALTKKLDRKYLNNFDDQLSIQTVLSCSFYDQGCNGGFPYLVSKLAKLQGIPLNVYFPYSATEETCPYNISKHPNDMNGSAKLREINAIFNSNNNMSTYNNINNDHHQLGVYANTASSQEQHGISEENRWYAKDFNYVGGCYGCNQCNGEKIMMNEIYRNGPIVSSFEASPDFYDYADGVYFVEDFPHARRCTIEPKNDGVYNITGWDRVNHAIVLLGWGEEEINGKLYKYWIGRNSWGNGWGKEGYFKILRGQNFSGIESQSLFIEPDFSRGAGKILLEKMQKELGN
row,Structure (SMILES),% Inhibition @ 10 uM [%]
1,CCOC(=O)N1CCC2(CC1)OC(=O)C(C)=C2C(=O)NCCC1=CCCCC1,-2.13
2,COc1cccc(OCc2cc(C3C(C#N)=C(N)Oc4[nH]nc(C)c43)ccc2OC)c1 (stereo not shown),4.08
3,Cc1ccc(C(=O)Nc2c(C)cccc2C(C)C)o1,-0.0938
4,Cc1ccccc1C(=O)Nc1ccc2nc(SCC(=O)N3CCCC3)sc2c1,1.02
5,Cc1ccc2c(c1)-c1onc(C(=O)N3CCc4ccccc4C3)c1CO2,0.0281
6,NC(=O)c1ccccc1NC(=O)CCCOc1ccc(Cl)cc1Cl,3.6
7,COc1ccc(C(=O)N2CCC(Cc3ccccc3)CC2)cc1,1.83
8,CC(C)C[C@@H](C(=O)NCC#N)c1cccc(-c2ccc(C(=O)N3CCC(N(C)C)C3)cc2)c1 (stereo partly shown),-3.04
9,COc1ccc(OC)c(/C=C2\N=C(c3cccc(C)c3OC)OC2=O)c1,-3.46
10,COc1ccc(NC(=O)CN2C(=O)S/C(=C/c3ccc(O)c(OC)c3)C2=O)cc1,3.75
11,O=C1c2ccccc2C(=O)N1c1nc[nH]n1,2.76
12,c1ccc(C(CCNC2CN3CCC2CC3)c2ccccc2)cc1 (stereo not shown),-0.0908
13,CC(C)C[C@H](NC(=O)C1CCCC1)C(=O)NCC#N,-6.46
14,CCCCNC(=O)CS(=O)Cc1nc(-c2ccc(C)cc2)oc1C (stereo not shown),-2.85
15,O=C1CC(c2cccc(F)c2F)c2c(O)nc(SCc3ccccc3)nc2N1 (stereo not shown),5.39
16,CCOCCCNC(=O)C1CCN(C(=O)N(C)C)CC1,0.387
17,COC(=O)C1=C(C)NC(=O)/C1=C/c1ccc(CNS(=O)(=O)c2ccc(Cl)cc2)o1,10.9
18,Cc1ccccc1NC(=O)c1cc2c(=O)n3cccc(C)c3nc2n1C,2.03
19,CNS(=O)(=O)c1cnccc1N1CCN(c2ccc(S(N)(=O)=O)cc2)CC1,-3.33
20,CCOC(=O)c1cc2c(=O)n3ccccc3nc2n(C(C)C)/c1=N\C(=O)c1cccc(OC)c1OC,-5.57
21,O=c1oc2c(Cl)cc(Cl)cc2cc1-c1nc(-c2cccs2)cs1,4.12
22,CCOC(=O)c1c(NC(=O)CC)sc2c1CCC(C(C)(C)C)C2 (stereo not shown),0.343
23,O=[N+]([O-])c1ccccc1CN1CCC(Cc2ccccc2)CC1,1.48
24,COc1ccc2c(c1)CCc1sc(NC(=O)c3ccc(OC)c(Br)c3)nc1-2,2.73
25,C=CCN1CCCC1CNC(=O)c1cc(S(N)(=O)=O)cc(OC)c1OC (stereo not shown),-1.22

row,Structure (SMILES),% Inhibition @ 10 uM [%]
1,CC1(C)Cc2nc3sc4c(O)ncnc4c3cc2CS1,-2.99
2,CC1CN(CC(O)COCCC23CC4CC(CC(C4)C2)C3)CC(C)O1 (stereo not shown),6.41
3,O=C(NC1=NC(=O)C(F)(C(F)(F)F)S1)NC1CCCCC1 (stereo not shown),-5.4
4,CCCCN1C(=O)C(NC(=O)c2cccnc2)(C(F)(F)F)C2=C1CC(C)(C)CC2=O (stereo not shown),-1.52
5,COCCCNC(=O)C1CCN(c2nnc(C)c3c(C)n(-c4ccccc4)nc23)CC1,-4.57
6,S=C1NCN(Cc2ccccc2)CN1CCc1ccccc1,-3.74
7,COc1cc(C2NC(=O)NC(C)=C2C(=O)Nc2ccc(Cl)cc2)cc(OC)c1OC (stereo not shown),-0.564
8,CC1CCC2C(=O)N(c3cc(Cl)ccc3O)C(=O)C2C1 (stereo not shown),-18.8
9,O=C(CNc1ncnc2ccccc12)NCCO,-8.69
10,CC(NCc1nc2ccccc2n1C)C12CC3CC(CC(C3)C1)C2 (stereo not shown),2
11,CCCNC(=O)c1ccc(C(=O)NCCC)cc1,3.25
12,Cc1ccccc1OCCCOc1ccc(/C=C2/C(=N)N3C(=NC2=O)SN=C3S(C)(=O)=O)cc1,-5.27
13,COc1ccc(C(=O)c2sc3nc4c(c(-c5cccnc5)c3c2N)CCC4)cc1,21.7
14,COc1cccc(C2CC(c3cccc(Br)c3)Nc3nnnn32)c1OC (stereo not shown),1.73
15,CN(C)CCN(Cc1ccccc1)C(=O)C(C(=O)c1ccc(Br)cc1)n1ccccc1=O (stereo not shown),2.31
16,COc1cc([N+](=O)[O-])cc2c1OC1(C=C2)N(C)c2ccccc2C1(C)C (stereo not shown),5.85
17,O=C(NCc1ccccn1)c1ccc2c(Cl)c3c(nc2c1)CCCC3,-4.94
18,CCN(CC)c1ccc2cc(-c3nc4ccccc4n3C)c(=O)oc2c1,-4
19,COCCNC(=O)c1cnn2c(C(F)F)cc(-c3ccccc3)nc12,2.46
20,COc1ccc(/C=C/C=N/n2c(SC)nnc2-c2ccccc2)cc1,2.56
21,CC1CCCC(NC(=O)C2C3C=CC(C3)C2C(=O)O)C1C (stereo not shown),-2.24
22,C=CCOc1ccc(C2C3=C(CC(C)(C)CC3=O)N(C)C3=C2C(=O)CC(C)(C)C3)cc1OC,-10.5
23,c1cc2n(c1)CCNC2C1CCCCC1 (stereo not shown),-0.0953
24,Cc1cc(C)c(OCC(=O)Nc2ccc(F)cc2)c(Br)c1,-1.28
25,O=C(Nc1nnc(/C=C/c2ccccc2)s1)c1ccc(Cl)c(Cl)c1,5.94

row,Structure (SMILES),% Inhibition @ 10 uM [%]
1,Cc1onc2c1C(=O)CC(c1ccccc1)C2 (stereo not shown),-2.63
2,O=C1c2cccc([N+](=O)[O-])c2C(=O)N1c1ccc(Cl)c(Cl)c1,42.2
3,Cc1ccn2c(NC(=O)CCc3ccccc3)c(-c3cccs3)nc2c1,3.49
4,COc1cccc(CN(C(=O)c2oc3cc(C)c(Cl)cc3c2C)C2CCS(=O)(=O)C2)c1 (stereo not shown),-7.09
5,O=C(c1ccc2nc(N3CCCCC3)sc2c1)N1CCN(C2CCCCC2)CC1,4.22
6,Cc1ccnc(NC(=O)c2ccccc2Cl)c1,-1.63
7,CN(C(=O)Nc1cccc(C(=O)NC(CSCc2ccccc2)C(=O)NCC#N)c1)[C@H]1CCN(Cc2ccccc2)C1 (stereo partly shown),-0.214
8,COc1cc(OC)cc(C(=O)Nc2nc(-c3nnn(-c4ccc(C(C)C)cc4)c3C)ns2)c1,-5.86
9,O=C(c1cc2nc(-c3cccs3)cc(C(F)(F)Cl)n2n1)N1CCOCC1,-7.81
10,COc1ccc(OC)c(NC(=O)Cc2ccccc2F)c1,-4.66
11,CC(C)CC(NC(=O)c1ccc(-c2csc(N(C)C)n2)cc1)C(=O)NCC#N (stereo not shown),-3.97
12,COCCCNC(=O)CCc1c(C)nc2c(c(C)nn2C(C)(C)C)c1C,-4.24
13,COc1ccc(OCC(=O)Nc2ccc(C)c(Cl)c2)cc1,-8.33
14,CC1(c2ccccc2)OC(=O)C(C#N)C12CCCCC2 (stereo not shown),2.58
15,CC(O)CNC(=O)COc1ccccc1 (stereo not shown),2.25
16,N#Cc1c(Nc2ccc(F)cc2)sc(C(=O)c2ccccc2)c1N,-0.661
17,CC(=O)c1cccc(-c2ccc(/C=C3/C(=O)N(C)C(=O)C(C#N)=C3C)o2)c1,-1.25
18,CC1=CC(C)(C)N(C(=O)Cc2ccccc2)c2ccccc21,4.6
19,O=c1c(Cl)c(NCCc2ccccc2)cnn1-c1nc2ccccc2o1,-1.59
20,COc1ccc(C2C(C(C)=O)=C(O)C(=O)N2c2ccc(Br)cc2)cc1 (stereo not shown),-1.98
21,COC(=O)c1cc2ccsc2[nH]1,1.72
22,Cc1cc(O)c(C2=NCCSC(c3ccccc3[N+](=O)[O-])C2)c(=O)o1 (stereo not shown),-8.3
23,COc1ccccc1N1CCN(Cc2cccc(C)c2)CC1,-0.127
24,CCOC(=O)N1CCC(NC(=O)Cn2cccc2C(=O)c2ccccc2)CC1,4.33
25,Cc1cc(C)c2oc(C(=O)Nc3nc4ccc(F)cc4s3)cc(=O)c2c1,1.9

row,Structure (SMILES),% Inhibition @ 10 uM [%]
1,COc1ccccc1N1C(=O)C2CCC(C)CC2C1=O (stereo not shown),-14.3
2,COc1ccc(NC(=O)c2ccc(Cc3ccc(C)cc3)o2)cc1,-0.641
3,COc1cc(C2C3=C(O)CCCC3=NC(C)=C2C(=O)Nc2cc(C)ccn2)cc(OC)c1OC (stereo not shown),2.36
4,CCC(C)NC(=O)CCNC(=O)Cn1ccc2ccccc2c1=O (stereo not shown),5.4
5,CCOc1ccccc1-n1c(SCC(=O)c2ccc(Cl)cc2)nc2nncc-2c1O,-5.03
6,Cc1sc(NC(=O)c2ccccc2)c(C(=O)NC(C)C)c1C,-1.29
7,O=C(/C=C(\O)c1ccccc1)C(F)(F)C(F)(F)c1cc(-c2ccccc2)[nH]n1,0.937
8,Cc1cccn2c(=O)c3cc(C(N)=S)c(=N)n(CCN4CCOCC4)c3nc12,4.78
9,O=C1NC2(CCCCCC2)N=C1c1ccc(F)cc1,-3.87
10,CCOC(=O)c1nnn(-c2cccc(C)c2C)c1C(=O)OCC,-7.21
11,CC1(C)Cc2c(sc(NC(=O)c3ccco3)c2C#N)CO1,0.983
12,O=C(CCNC(=O)Cn1ccc2ccccc2c1=O)NCc1ccc(F)cc1Cl,4.33
13,COc1ccc(CNCc2c(C(=O)O)[nH]c3cc(C)ccc23)cc1,-6.3
14,Cc1cccc(N(CC(=O)O)S(=O)(=O)c2ccc(Cl)cc2)c1,7.18
15,CCCCC(C(N)=O)N1C(=O)C2C3C=CC(C3)C2C1=O (stereo not shown),2.08
16,CCOc1ccc(CNC2=NS(=O)(=O)C(c3ccc(C)cc3)=C2C)cc1,0.623
17,COc1ccc(NC2=C(Cl)C(=O)N(c3ccc(OC)cc3)C2=O)cc1,0.385
18,C=CCn1c(SCC(=O)NCc2ccco2)nnc1-c1ccc2[nH]c(C)c(C)c2c1,-3.21
19,Cc1cc(Cl)ccc1OCC(=O)N1CCN(C/C=C/c2ccccc2)CC1,-6.08
20,O=S(=O)(/C=C/c1ccccc1)N1C=Cc2ccccc2C1c1c[nH]c2ccccc12 (stereo not shown),4.35
21,CC(C)C[C@H](NC(=O)c1cccc2cccnc12)C(=O)NCC#N,-8.36
22,O=C(Nc1nccs1)C(c1ccccc1)N1Cc2ccccc2C1=O (stereo not shown),1.66
